Measured values taken from the supplement of paper PMC8728848.
The list shows a part of the results.

Experiments:
Assay in all cases: glycan array binding signal (z-score within array); higher = stronger binding
Conditions in all cases: glycan notation: IUPAC condensed, linker removed
Kdn(a2-3)Gal(b1-4)Glc = molecular target: Kdn(a2-3)Gal(b1-4)Glc
Method in brief: (§1)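 Negative Z-scores can be read as non-binding. The Z-score is calculated within each array and then averaged across arrays of one protein sequence at different concentrations or buffers and across linkers. Arrays, 3228 in all, were curated from the Consortium for Functional Glycomics database and kept only where the protein sequence was available.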

Kdn(a2-3)Gal(b1-4)GlcNAc = molecular target: Kdn(a2-3)Gal(b1-4)GlcNAc
Method in brief: as §1

[1] = molecular target: Kdn(a2-3)Gal(b1-4)[Fuc(a1-3)]GlcNAc
Method in brief: as §1

Kdn(a2-6)Gal(b1-4)GlcNAc = molecular target: Kdn(a2-6)Gal(b1-4)GlcNAc
Method in brief: as §1

[2] = molecular target: Man(a1-2)Man(a1-2)Man(a1-3)Man
Method in brief: as §1

[3] = molecular target: Man(a1-2)Man(a1-2)Man(a1-6)[Man(a1-3)]Man
Method in brief: as §1

Man(a1-2)Man(a1-3)Man = molecular target: Man(a1-2)Man(a1-3)Man
Method in brief: as §1

[4] = molecular target: Man(a1-2)Man(a1-3)[Man(a1-2)Man(a1-6)]Man
Method in brief: as §1

[5] = molecular target: Man(a1-2)Man(a1-3)[Man(a1-2)Man(a1-6)]Man(a1-6)[Man(a1-2)Man(a1-2)Man(a1-3)]Man
Method in brief: as §1

[6] = molecular target: Man(a1-2)Man(a1-3)[Man(a1-2)Man(a1-6)]Man(a1-6)[Man(a1-2)Man(a1-2)Man(a1-3)]Man(b1-4)GlcNAc(b1-4)GlcNAc
Method in brief: as §1

[7] = molecular target: Man(a1-2)Man(a1-3)[Man(a1-6)]Man(a1-6)[Man(a1-2)Man(a1-3)]Man(b1-4)GlcNAc(b1-4)GlcNAc
Method in brief: as §1

[8] = molecular target: Man(a1-2)Man(a1-6)[Man(a1-3)]Man(a1-6)[Man(a1-2)Man(a1-2)Man(a1-3)]Man
Method in brief: as §1

[9] = molecular target: Man(a1-2)Man(a1-6)[Man(a1-3)]Man(a1-6)[Man(a1-2)Man(a1-2)Man(a1-3)]Man(b1-4)GlcNAc(b1-4)GlcNAc
Method in brief: as §1

Man(a1-3)[Man(a1-6)]Man = molecular target: Man(a1-3)[Man(a1-6)]Man
Method in brief: as §1

[10] = molecular target: Man(a1-3)[Man(a1-6)]Man(a1-6)[Man(a1-2)Man(a1-3)]Man(b1-4)GlcNAc(b1-4)GlcNAc
Method in brief: as §1

[11] = molecular target: Man(a1-3)[Man(a1-6)]Man(a1-6)[Man(a1-3)]Man
Method in brief: as §1

[12] = molecular target: Man(a1-3)[Man(a1-6)]Man(a1-6)[Man(a1-3)]Man(b1-4)GlcNAc(b1-4)GlcNAc
Method in brief: as §1

[13] = molecular target: Man(a1-3)[Man(a1-6)]Man(b1-4)GlcNAc(b1-4)GlcNAc
Method in brief: as §1

[14] = molecular target: Man(a1-3)[Man(a1-6)]Man(b1-4)GlcNAc(b1-4)[Fuc(a1-6)]GlcNAc
Method in brief: as §1

Man(a1-6)Man = molecular target: Man(a1-6)Man
Method in brief: as §1

Man(b1-4)GlcNAc = molecular target: Man(b1-4)GlcNAc
Method in brief: as §1

MurNAc(b1-4)GlcNAc = molecular target: MurNAc(b1-4)GlcNAc
Method in brief: as §1

Neu5Ac(a2-3)Gal = molecular target: Neu5Ac(a2-3)Gal
Method in brief: as §1

[15] = molecular target: Neu5Ac(a2-3)Gal(b1-3)GalNAc
Method in brief: as §1

[16] = molecular target: Neu5Ac(a2-3)Gal(b1-3)GalNAc(b1-3)Gal(a1-4)Gal(b1-4)Glc
Method in brief: as §1

[17] = molecular target: Neu5Ac(a2-3)Gal(b1-3)GalNAc(b1-4)[Neu5Ac(a2-3)]Gal(b1-4)Glc
Method in brief: as §1

[18] = molecular target: Neu5Ac(a2-3)Gal(b1-3)GalNAc(b1-4)[Neu5Ac(a2-8)Neu5Ac(a2-3)]Gal(b1-4)Glc
Method in brief: as §1

[19] = molecular target: Neu5Ac(a2-3)Gal(b1-3)GalNAc6S
Method in brief: as §1

[20] = molecular target: Neu5Ac(a2-3)Gal(b1-3)GlcNAc
Method in brief: as §1

[21] = molecular target: Neu5Ac(a2-3)Gal(b1-3)GlcNAc(b1-2)Man
Method in brief: as §1

[22] = molecular target: Neu5Ac(a2-3)Gal(b1-3)GlcNAc(b1-2)Man(a1-3)[GlcNAc(b1-4)][Neu5Ac(a2-3)Gal(b1-3)GlcNAc(b1-2)Man(a1-6)]Man(b1-4)GlcNAc(b1-4)GlcNAc
Method in brief: as §1

[23] = molecular target: Neu5Ac(a2-3)Gal(b1-3)GlcNAc(b1-2)Man(a1-3)[Neu5Ac(a2-3)Gal(b1-3)GlcNAc(b1-2)Man(a1-6)]Man(b1-4)GlcNAc(b1-4)GlcNAc
Method in brief: as §1

[24] = molecular target: Neu5Ac(a2-3)Gal(b1-3)GlcNAc(b1-3)Gal(b1-3)GlcNAc
Method in brief: as §1

[25] = molecular target: Neu5Ac(a2-3)Gal(b1-3)GlcNAc(b1-3)Gal(b1-4)GlcNAc
Method in brief: as §1

[26] = molecular target: Neu5Ac(a2-3)Gal(b1-3)GlcNAc(b1-3)GalNAc
Method in brief: as §1

[27] = molecular target: Neu5Ac(a2-3)Gal(b1-3)GlcNAc(b1-4)Gal(b1-4)Glc
Method in brief: as §1

[28] = molecular target: Neu5Ac(a2-3)Gal(b1-3)GlcNAc(b1-6)GalNAc
Method in brief: as §1

[29] = molecular target: Neu5Ac(a2-3)Gal(b1-3)GlcNAc6S
Method in brief: as §1

B1: ECL (Erythrina cristagalli), Q6YD91 (protein)
chain: VETISFSFSEFEPGNNDLTLQGAAIITQSGVLQLTKINQNGMPAWDSTGRTLYTKPVHIWDMTTGTVASFETRFSFSIEQPYTRPLPADGLVFFMGPTKSKPAQGYGYLGVFNNSKQDNSYQTLAVEFDTFSNPWDPPQVPHIGIDVNSIRSIKTQPFQLDNGQVANVVIKYDASSKILLAVLVYPSSGAIYTIAEIVDVKQVLPEWVDVGLSGATGAQRDAAETHDVYSWSFHASLPETND
glycan array binding signal (z-score) (Kdn(a2-3)Gal(b1-4)Glc): -0.182 | glycan array binding signal (z-score) (Kdn(a2-3)Gal(b1-4)GlcNAc): -0.326 | glycan array binding signal (z-score) [1]: -0.054 | glycan array binding signal (z-score) (Kdn(a2-6)Gal(b1-4)GlcNAc): -0.261 | glycan array binding signal (z-score) [2]: -0.137 | glycan array binding signal (z-score) [3]: -0.188 | glycan array binding signal (z-score) (Man(a1-2)Man(a1-3)Man): -0.327 | glycan array binding signal (z-score) [4]: -0.232 | glycan array binding signal (z-score) [5]: -0.262 | glycan array binding signal (z-score) [6]: -0.001 | glycan array binding signal (z-score) [7]: -0.307 | glycan array binding signal (z-score) [8]: 0.06 | glycan array binding signal (z-score) [9]: -0.143 | glycan array binding signal (z-score) (Man(a1-3)[Man(a1-6)]Man): -0.186 | glycan array binding signal (z-score) [10]: 0.227 | glycan array binding signal (z-score) [11]: -0.185 | glycan array binding signal (z-score) [12]: -0.238 | glycan array binding signal (z-score) [13]: -0.229 | glycan array binding signal (z-score) [14]: -0.568 | glycan array binding signal (z-score) (Man(a1-6)Man): -0.165 | glycan array binding signal (z-score) (Man(b1-4)GlcNAc): -0.306 | glycan array binding signal (z-score) (MurNAc(b1-4)GlcNAc): -0.266 | glycan array binding signal (z-score) (Neu5Ac(a2-3)Gal): -0.366 | glycan array binding signal (z-score) [15]: -0.304 | glycan array binding signal (z-score) [16]: -0.191 | glycan array binding signal (z-score) [17]: -0.322 | glycan array binding signal (z-score) [18]: -0.235 | glycan array binding signal (z-score) [19]: -0.378 | glycan array binding signal (z-score) [20]: -0.349 | glycan array binding signal (z-score) [21]: -0.135 | glycan array binding signal (z-score) [22]: -0.365 | glycan array binding signal (z-score) [23]: -0.069 | glycan array binding signal (z-score) [24]: -0.371 | glycan array binding signal (z-score) [25]: -0.337 | glycan array binding signal (z-score) [26]: -0.426 | glycan array binding signal (z-score) [27]: -0.241 | glycan array binding signal (z-score) [28]: -0.367 | glycan array binding signal (z-score) [29]: -0.056
